# Data from PMC12136788.
# Some of the results follow.
# B1: ENSG00000070961:be:win_2151|CDS|ENSG00000070961|bound_else_gene|NA|bound_elsewhere_windowed (ssRNA)
# RNA: GGGAGUUCUACAGUCCGACGAUCCAUUGCUACCAAAUGUGGUAUUUUACAUCCUGGGGAAGAUUUUCUGUGCCUAGAAGGUAAAGAUUUUAACAGAAGAAUACGAAAUGAAAAAGGAGAGAUUGAGCAAGAGAGGAUAGACAACAACAGAGGAUUGAGCAUCA
# B2: chr15:43617570:43618356:-|three_prime_utr|ENSG00000284772|control|control|control (ssRNA)
# RNA: GGGAGUUCUACAGUCCGACGAUCUACAUUCCUGGCCAACAUUUCUUCUUCCUUUGAGCCUGGGAGAAUGGGGGAAGGACCAGUAGGAGAGCCCCCACCUCUCCAGCCGCCUGCUCUGCGGCUCCAUGAUUUUCUAGUGACACUCAACAGAGGAUUGAGCAUCA
# B3: chrX:85271413:85271529:+|CDS|ENSG00000147180|unk|total|mutant (ssRNA)
# RNA: GGGAGUUCUACAGUCCGACGAUCUGUGAUAAAGGUUUUCAUCGUCCUUCUGAGCUCAAAAAGCACCGUGAUAUCCAUAAGGGCCGGAAGAUUCAUCAGUGCAGGCACUGUGACUUUAAAACAUCCGAUCCAUUUAUUCUCCGUCAACAGAGGAUUGAGCAUCA
# B4: chr1:168200228:168200338:+|3pUTR|ENSG00000143155|unk|total|mutant (ssRNA)
# RNA: GGGAGUUCUACAGUCCGACGAUCUAUUUUCUGGAGUUAAAUUUGGAUGAUUUCUAAAUUAUCACAAAGUGGGACCUCAGCAGCCGUGAUGUGUGUGUCUCAUGAGCAGUGAGCACAGUCUGCAUUCAUCAUGAAACACUAUCUCAACAGAGGAUUGAGCAUCA
# B5: ENSG00000101945:stop:overlap|stop_codon|ENSG00000101945|stop_codon|NA|stop_codon (ssRNA)
# RNA: GGGAGUUCUACAGUCCGACGAUCAGAAGCGGGUCCGUAUUGAAUGCAAGUGUGGGACUGAGUCCUGCCGCAAAUACCUCUUCUAGCCCUUAGAAGUCUGAGGCCAGACUGACUGAGGGGGCCUGAAGCUACAUGCACCUCCCCCAACAGAGGAUUGAGCAUCA
# B6: ENSG00000070961:be:win_501|CDS|ENSG00000070961|bound_else_gene|NA|bound_elsewhere_windowed (ssRNA)
# RNA: GGGAGUUCUACAGUCCGACGAUCGUUAGUAACAGCUUUCAAUGACUGGAGUAAGGAAAAACAGUUUAGAGGUUUGCAGAGCCGAAUUGAACAAGAACAGAAGUUCACUGUCAUCAGGGGUGGUCAGGUCAUUCAGAUACCUGUCAACAGAGGAUUGAGCAUCA
# B7: chr20:56404979:56405080:+|3pUTR|ENSG00000101138|unk|FALSE|unique (ssRNA)
# RNA: GGGAGUUCUACAGUCCGACGAUCCCGCGCCCAGCCUUCCUGAAGCUUUUUAGAACAUGACAGUACUUCUCUGGAUUCAGCACUAGCAGAGUCAGAGAACUCUGAACUCCCCUUGUACAAACAUAAACUUUGCUUUAUAUUUAUCAACAGAGGAUUGAGCAUCA
# B8: chr11:83166318:83166419:+|CDS|ENSG00000165494|unk|FALSE|unique (ssRNA)
# RNA: GGGAGUUCUACAGUCCGACGAUCGGGACAAAACCAGGGAGAUCGAGUACUAGAAAGCGAUCAAGAUCUCGAUCACCCAAGUCUAGGUCACCAAUUAUACAUUCCCCAAAGAGAAGAGAUAGGCGGUCACCCAAACGAAGGCAACAACAGAGGAUUGAGCAUCA
# B9: chr14:71723713:71723820:+|CDS|ENSG00000197555|unk|total|mutant (ssRNA)
# RNA: GGGAGUUCUACAGUCCGACGAUCGCUGCCCCCUCACAGCUCGCACCAUCCUUCUCCUCCUCUUCCUCCUCCUCCUCUGGUCCCCGGAGUUUUUACCCUCGCCAGGGCGCUACCCGCAAGUACCUGAUUGGAUGGAAAAAACCCCAACAGAGGAUUGAGCAUCA
# B10: ENSG00000198589:be:win_8451|CDS_3pUTR|ENSG00000198589|bound_else_gene|NA|bound_elsewhere_windowed (ssRNA)
# RNA: GGGAGUUCUACAGUCCGACGAUCGCUGUCUUACGACCAGAGGUGCAUCAUUUCUGGCAUGGCUUCAGGAAGCAUUGUGCUAUUUUACAACGACUUUAACCGGUGGCAUCAUGAAUACCAAACCCGCUACUGAUGGUGACAGCUCAACAGAGGAUUGAGCAUCA
# B11: chr16:21843385:21843581:-|three_prime_utr|ENSG00000185864|control|control|control (ssRNA)
# RNA: GGGAGUUCUACAGUCCGACGAUCGGAAAUAAAAUUGUCCUGAAAGACGUCAUUACUCUACGGAGACAUGUGGAAACAAAAGUUAGAGCUAAAAUCCGUAAGAGGAAGGUGACAACGAAAAUCAACCAUCAUGACAAAAUCAAUCAACAGAGGAUUGAGCAUCA
# B12: chr2:73700624:73701305:-|CDS|ENSG00000204872|control|control|control (ssRNA)
# RNA: GGGAGUUCUACAGUCCGACGAUCACCGUGGUCAGGGGAUAGCAAAAGCCCUGGUCAGGACUGUCCUCCAGUUUGCCCGGGACUAGGGCUACAGUGAAGUUGUCCUGGACACCAGCAACAUCCAGCUCUCUGCCAUGGGCCUCUCAACAGAGGAUUGAGCAUCA
# B13: chr11:35231809:35232301:+|3pUTR|ENSG00000026508|msi1|total|mutant (ssRNA)
# RNA: GGGAGUUCUACAGUCCGACGAUCACAACACCAAGAAUUGAUUUUGCCGCCAACAUUCAUUCAAUACUGUUAUAUCAGAGGAGCCGGAGAGAGGAAACAUUUGACUUAUCUGGAAAAGCAAAAUGUACUUAAGAAUAAGAAUAACAACAGAGGAUUGAGCAUCA
# B14: chr11:108106880:108106981:+|3pUTR|ENSG00000166266|msi1|total|mutant (ssRNA)
# RNA: GGGAGUUCUACAGUCCGACGAUCUCCGUGGUAUGGCAAUAAGACACUUCAGAGGCUAUCUUAACCUCUGAAUACCCAUCUUCCCGUUUAAAGACAGAGACAUCCCAUCUGGAAAAUGUUAACUUGUGUUGCCAUCUCGUUGCCCAACAGAGGAUUGAGCAUCA
# Molecular target: MSI1 full-length (mouse, UniProt Q61474 1-362)
# Sequence of UniProt Q61474 (Q61474 whole entry): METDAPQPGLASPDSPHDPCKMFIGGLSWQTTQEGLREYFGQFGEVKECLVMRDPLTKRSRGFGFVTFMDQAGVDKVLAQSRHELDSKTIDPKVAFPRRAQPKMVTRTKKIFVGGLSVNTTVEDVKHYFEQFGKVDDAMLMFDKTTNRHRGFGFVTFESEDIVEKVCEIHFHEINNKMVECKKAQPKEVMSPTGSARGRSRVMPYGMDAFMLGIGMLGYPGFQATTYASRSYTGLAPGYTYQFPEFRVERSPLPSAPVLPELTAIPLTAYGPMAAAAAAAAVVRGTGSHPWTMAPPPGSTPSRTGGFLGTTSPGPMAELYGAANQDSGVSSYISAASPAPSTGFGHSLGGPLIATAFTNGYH
# Test: nsRBNS (natural sequence RNA bind-n-seq); RBNS binding buffer (assumed for nsRBNS): 25 mM Tris pH 7.5, 150 mM KCl, 3 mM MgCl2, 0.01% Triton X-100, 500 ug/ml BSA, 20 U/ml SUPERase-In, 4 C; UNK is unkempt and MSI1 is Musashi-1; names of the RNAs are library labels; protein concentration not given here; high values mean tight binding
row,Binder,binding signal
1,B1,0.434 enrichment R
2,B2,0.524 enrichment R
3,B3,0.319 enrichment R
4,B4,0.333 enrichment R
5,B5,0.457 enrichment R
6,B6,0.9 enrichment R
7,B7,1.17 enrichment R
8,B8,0.436 enrichment R
9,B9,0.786 enrichment R
10,B10,0.256 enrichment R
11,B11,0.194 enrichment R
12,B12,0.459 enrichment R
13,B13,0.457 enrichment R
14,B14,0.282 enrichment R
